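Interpolation was linear, between the two tested concentrations surrounding the appropriate level; five concentrations were tested over 48 hours in 96-well plates. GI50: concentration for 50% inhibition of growth. The concentration for full growth arrest is given as TGI.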
system: NCI-H322M lung; assay: NCI anticancer screen, dose series, 48 h

Structure (SMILES)	TGI	GI50
COC(=O)C1C(O)C(C)C(O)C(C)(O)C=C(C)C2=C3C(=C(C)C(=O)c4c(O)c(c(C)c(OC(C)=O)c43)NC(=O)C(C)=C/C=C\C(C)(O)C(O)C(C)C1O)OCO2 (stereo unspecified)	> 100 µM	–
COC1CC(OC2C(C)OC(OC3C(C)OC(OC4CCC5(C)C(=CCC6(O)C5CC(OC(=O)c5ccc(O)cc5)C5(C)C(O)(C(C)=O)CCC65O)C4)CC3OC)CC2OC)OC(C)C1O (stereo unspecified) (tested in a mixture with another compound)	> 100 µM	–
O=S(=O)(Nc1cccc(Cl)c1)c1ccc(-c2cnc(C3CC3)o2)cc1	31.5 µM	7240 nM
Cc1cc2nc3[nH]c4c(Cl)cc(Cl)cc4c3nc2cc1C	> 100 µM	–
COc1cc([C@@H]2c3cc4c(cc3[C@@H](NC(=O)c3cccc(C#N)c3)C3COC(=O)[C@@H]32)OCO4)cc(OC)c1O (stereo partly specified)	> 100 µM	–
COc1ccc(-c2cc(-c3ccccc3)nc(N)c2-c2ccc3ccccc3c2)cc1	3.78 µM	–
CN(C)C(=S)NC(=S)Nc1ccc2ccccc2c1	56.6 µM	–
COc1ccc(SS(=O)(=O)c2ccc(OC)cc2)cc1	> 100 µM	–
Cc1ccc(NC(=O)CC(=O)n2nc(-c3ccccc3)c(N=Nc3ccccc3[N+](=O)[O-])c2-c2ccccc2)cc1	> 100 µM	–
COc1cccc(CNCCN2C(=O)c3ccc4c5c(ccc(c35)C2=O)C(=O)N(CCNCc2cccc(OC)c2)C4=O)c1	7.79 µM	2480 nM
N#C/C(=C\c1ccc2c(c1)OCO2)n1nnc2ccccc21	12.1 µM	2540 nM
Cc1cc(Cl)ccc1Nc1nc(C(F)(F)F)ccc1C(=O)N/N=C/c1cccc(O)c1	7.15 µM	923 nM
COC(=O)c1ccc2[nH]c(O)c(C(=Nc3ccc(N(C)C(=O)CN4CCN(C)CC4)cc3)c3cccc(OC)c3)c2c1	6.24 µM	1480 nM
COc1ccc(N2C(=O)C3c4[nH]c5cccc(Cl)c5c4C4CCC(C(C)(C)C)CC4C3C2=O)cc1 (stereo unspecified)	> 100 µM	–
Cc1ccc(/C(O)=C/c2nc3ccccc3[nH]c2=O)cc1	38.8 µM	–
Cc1ccc(Cl)cc1Nc1nc(C(F)(F)F)ccc1C(N)=O	22.1 µM	2060 nM
COc1ccc(-c2ncnc(-c3ccc(OC)c(OC)c3)n2)cc1OC	> 100 µM	–
CCCCCOc1ccc(Nc2c(O)c3c(c(O)c2Cl)C(=O)C=CC3=O)cc1	> 10 µM	–

Structure (SMILES)	TGI	GI50
CCOC(=O)Oc1ccc(C(CNC(C)C)OC(=O)OCC)cc1OC(=O)OCC (stereo unspecified)	> 100 µM	–
O=C(c1ccccc1)N(C(=S)NCCc1ccc(Cl)cc1)c1ccc(Cl)cc1	29.6 µM	14200 nM
CCc1nc(N)c2nc(-c3ccc(C#N)cc3)oc2n1	> 100 µM	–
CN(C)C=Nc1ccc2c3c(cccc13)-c1ccccc1-2	28.1 µM	–
COc1ccc(OC)c(N(CCN2C(=O)c3ccccc3C2=O)C(=O)CCl)c1	39.4 µM	18900 nM
CCOC(=O)c1sc2c(sc(=O)n2-c2ccccc2)c1O	> 100 µM	–
Cc1ccc(N=Nc2c(O)c(C(=O)O)cc3ccccc23)c(S(=O)(=O)O)c1	> 100 µM	–
CC1=C(C)C2(C#N)C(=O)N3C(=NC(c4ccccc4)NC3c3ccccc3)C2(C#N)C(c2ccccc2)N1 (stereo unspecified)	> 100 µM	–
NC(N)=NNC(=O)CCn1[nH]c(=O)c(Cl)c(Cl)c1=O	> 100 µM	–
COC(=O)CCC1(C)C2CCC1/C(=N/O)C2 (stereo unspecified)	> 100 µM	–
Nc1c(N2CCCCC2)c(=O)nc2[nH]/c(=C\c3ccco3)c(=O)n12	> 100 µM	–
Cc1ccc2c(=O)cc(-c3ccc(Cl)cc3)[nH]c2n1	> 100 µM	–
COc1ccc2c(c1)C(=Nc1ccc(F)c(F)c1F)c1c-2c(Nc2ccc(F)c(F)c2F)nc2ccccc12	> 100 µM	> 100000 nM
c1ccc(CNc2ccc3[nH]c4cnccc4c3c2)cc1	33.3 µM	–
Cc1ccc(SC2=C(N(C)C)C(=O)c3ccccc3C2=O)cc1	30.1 µM	–
C=C1CC[C@@H]2C(C)(C)[C@H](O)CC[C@@]2(C)[C@@H]1COc1ccc2ccc(=O)oc2c1	71.8 µM	23100 nM
C#CCC(O)c1ccccc1C(O)CC#C (stereo unspecified)	> 100 µM	–
CC(=O)O[C@@H]1C(C2CCCCC2)C=[N+]([O-])O[C@@H]1OC1CCCC1(c1ccccc1)c1ccccc1 (stereo partly specified)	31.5 µM	–
